Data on 20 variants can be found in the RNAGym collection of RNA variant scans (doi:10.7554/elife.90254).

Sequences and labels used below:
B1: OR4K15 (parent)
chain: GUUAACGGUCAUAGGCCAUGGAAACUAGGAGCACCAUUUCGCUGCCAGUGAAGAAAUGAACAAAGAAAAUCUGGGCCAGGCAGGCAUCAAAAGAAAUAGUCUUGCGCUCAACCAGAAAGUCUGUAAUCAUUUUAAGGGUA

The source gives no read counts; variants with many changes may rest on few reads.

The series covers variants of B1. Put plainly: self-cleavage, relative activity (ratio to wild type); higher = more cleavage; in vitro, sequencing; the parent is a self-cleaving ribozyme.
Regarding GUUAACGGUCAUAGGCCAUGGAAACUAGGAGCACCAUUUCGCUGCCAGCGAAGAAGCGAACAAAGAAAAUCUGGGCCAGGCAGGCAUCAAAAGAAAUAGUCUUGCGCUCAACCGGAAGGUCUGUAAUCAUCUUAAGGGUA [U49C A56G U57C A114G A118G U131C], the self-cleavage is 0.07.
For GUUAACGGUCAUAGGCCAUGGAAACUAGGAGCACCAUUUCGCUGCCAGAGAAGAAAUGAAUAAAGAAAACCUGGGCCAGGCAGGCAUCAAAAGAAAUAGUCUUGCGCUCAACCAGAAAGUCUGUAAUCAUUUUAAGGGUA [U49A C61U U70C] the value was 0.39; for GUUAACGGUCAUAGGCCAUGGAAACUAGGAGCACCAUUUCGCUGCCAGAGAAGAAAUGAACAAAGAAAAUCUGGACCGGGCAGGCAUCAAAAGAAAUAGUCUUGCGCUCGACCAGAAAGUCUGUAAUCAUUCUAAGGGUA [U49A G75A A78G A110G U132C], 0.01.
As to GUUAACGGUCAUAGGCCAUGGAAACUAGGAGCACCAUUUCGCUGCCAGAGAAGAAAUGAACAAAGAAAAUCUGGGCCAGGCAGGCAUCGAAAGAAACAGUCUUGCGCUCAACCAGAAAGUCUGUAAUCAUUUUAAGGGUA [U49A A89G U97C], the self-cleavage worked out at 1.22.
The value for GUUAACGGUCAUAGGCCAUGGAAACUAGGAGCACCAUUUCGCUGCCAGCGGAGAAAUGAACAAAGAAAAUCUGGGCCAGGCAGGCAUCAAAAGAAGUAGUCUUGCGCUCAACCAGAAAGUCCGUAAUCAUUUUAAGGGUA [U49C A51G A96G U122C] was 1.83; that for GUUAACGGUCAUAGGCCAUGGAAACUAGGAGCACCAUUUCGCUGCCAGCGAAGAAAUGGACGGAGAAAAUCUGGGCCAGGCAGGCAUCAAAAGAAAUAGUCUUGCGCUCAACCAGAAAGUCUGUAAUCAUUUUAAGGGUA [U49C A59G A62G A63G] was 0.49; that for GUUAACGGUCAUAGGCCAUGGAAACUAGGAGCACCAUUUCGCUGCCAGCGAGGAAAUGAACAAAGAAAACCUGGGCCAGGCAGGCAUCAAAAGACAUAGUCUUGCGCUCAACCAGAAAGUCUGUAAUCAUUUUAAGGGUA [U49C A52G U70C A95C] was 0.31.
In the case of GUUAACGGUCAUAGGCCAUGGAAACUAGGAGCACCAUUUCGCUGCCAGCGAAGAAGUGAACAAGGAAAAUCUGGGCCAGGCAGGCGUCAAAAGAAAUAGUCUUGCGCUCAACCAGAAAGUCUGUAGUCAUUUUAAGGGUA [U49C A56G A64G A86G A126G], the self-cleavage was determined as 0.73.
For GUUAACGGUCAUAGGCCAUGGAAACUAGGAGCACCAUUUCGCUGCCAGAGAAGAAAUGAACAAAGAAAAUCUGGGCCAGGCAGGCAUCAAGAGAAAUAGUCUUGCGCUCAACCAGAAAGUCUGUAAUCACUUUAAGGGUA [U49A A91G U130C] the value was 0.29; for GUUAACGGUCAUAGGCCAUGGAAACUAGGAGCACCAUUUCGCUGCCAGAGAAGAAAUGAACAAAGAAAAUCUGGGCCAGGCAGGCAUCAAAAGAAAUAGUCUUGCGCUCAACCAGAAGGUCUGUAAUCAAUUUAAGGGUA [U49A A118G U130A], 0.28; for GUUAACGGUCAUAGGCCAUGGAAACUAGGAGCACCAUUUCGCUGCCAGCGAAGAAAUGAGCAAAGAAAAUCUGGGCCAGGCAGGCAGUAAAAGAAAUAGUCUCGCGCUCAACCAGAAAGUCUGUAAUCAUUUUAAGGGUA [U49C A60G U87G C88U U103C], 0.7.
The value for GUUAACGGUCAUAGGCCAUGGAAACUAGGAGCACCAUUUCGCUGCCAGCGUAGAAAUGAACAAAGAAAACCUGGGCCAGGCAGGCAUCAAAAGAAAUAGUCUUGCGCUCAACCAGAAAGUCUGUAAUCAUUUCAAGGGUA [U49C A51U U70C U133C] was 0.17; that for GUUAACGGUCAUAGGCCAUGGAAACUAGGAGCACCAUUUCGCUGCCAGCGAAGAAAUGAACGAAGAAAGUCUGGGCCAGGCAGGCAUCAAAAGAAAUAGUCUUGCGCUCAACCAGAGAGUCUGUAAUCAUUUUAAGGGUA [U49C A62G A69G A117G] was 1.03; that for GUUAACGGUCAUAGGCCAUGGAAACUAGGAGCACCAUUUCGCUGCCAGAGAAGAAAUGAACAAAGAAAAUCAGGGCCAGGCAGGCAUCAAAAGAAAUAGCCUUGCGCUCAACCAGAAAGUCUGUAAUCAUUUUAAGGGUA [U49A U72A U100C] was 0.32.
For GUUAACGGUCAUAGGCCAUGGAAACUAGGAGCACCAUUUCGCUGCCAGAGAAGAAAUGAACAAAGAAAAUCUGGGCCGGGCAGGCAUCAAAGGAAAUAGUCUUGCGCUCAACCAGAAAGUCUGUAAUCAUUUUAAGGGUA [U49A A78G A92G] the value was 0.22; for GUUAACGGUCAUAGGCCAUGGAAACUAGGAGCACCAUUUCGCUGCCAGCGAAGAAAUGAGCAAGGAAAAUCUGGGCCAGGCAGGCAUCAAAAGAGAUAGUCUUGCGCUCAACCAGGAAGUCUGUAAUCAUUUUAAGGGUA [U49C A60G A64G A95G A116G], 0.21.
As for GUUAACGGUCAUAGGCCAUGGAAACUAGGAGCACCAUUUCGCUGCCAGCGAAGGAAUGAACAAAGAAAAUCUGGGCCAGGCAGGCAUCAAAAGAAAUAGUCUUGCGCUCAACAAGAAAGUCUGCAAUCAUUUUCAGGGUA [U49C A54G C113A U124C A134C], the self-cleavage is 0.04.
Consider GUUAACGGUCAUAGGCCAUGGAAACUAGGAGCACCAUUUCGCUGCCAGAGAAGAAAUGAACAAAGAAAAUCUGGGCCAGGCAGGCACCAAAAGAAAUAGUCUUGCGCUCAACCAGAAAGUCUUUGAUCAUUUUAAGGGUA [U49A U87C G123U A125G], for which the self-cleavage was found to be 0.69.
Regarding GUUAACGGUCAUAGGCCAUGGAAACUAGGAGCACCAUUUCGCUGCCAGAGAAGAAAUGAACAAAGAAAGUCUGGGCCAGGCAGGCACCAAAAGAAAUAGCCUUCCGCCCAACCAGAGGGUCUGUAAUCAUUUUAAGGGUA [U49A A69G U87C U100C G104C U108C A117G A118G], the self-cleavage was determined as 0.
For GUUAACGGUCAUAGGCCAUGGAAACUAGGAGCACCAUUUCGCUGCCAGCGGAGAAAUGAACAAAGAGAAUCUGGGCCAGGCAGGCAUCAAAAGAAAUAGUCUUGCGCUCAACCAGAAAGUCUGUAAUCAUUUUAAGGGUA [U49C A51G A67G] the value was 1.7.
